Test results as given in the supplement of paper PMC3334620.
Over roughly 33,000 sequences, “E-score (-0.5 to 0.5)” has its median near -0.013; the highest 2% begin near 0.3. Some of the results follow.

molecular target: T1, Msn1 (UniProt P22148); assay: PBM E-score (8-mer binding enrichment) (E-score (-0.5 to 0.5)); higher = stronger / more preferred TF binding; most listed sequences are background and not binding sites; details: protein concentration: 200 nM; construct: GST-full length
T1 sequence: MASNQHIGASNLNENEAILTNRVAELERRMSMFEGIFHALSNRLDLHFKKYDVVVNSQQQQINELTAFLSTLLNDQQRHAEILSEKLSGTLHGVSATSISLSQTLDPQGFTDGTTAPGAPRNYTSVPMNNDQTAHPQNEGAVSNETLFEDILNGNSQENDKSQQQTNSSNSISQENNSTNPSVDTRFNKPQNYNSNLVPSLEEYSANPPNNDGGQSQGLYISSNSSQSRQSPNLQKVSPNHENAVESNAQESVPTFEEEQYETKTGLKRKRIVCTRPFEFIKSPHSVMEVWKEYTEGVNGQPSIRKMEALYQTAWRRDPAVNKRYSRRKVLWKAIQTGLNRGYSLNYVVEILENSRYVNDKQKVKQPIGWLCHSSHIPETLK
Summary of the method: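 Using PURExpress in vitro transcription/translation, GST-tagged yeast transcription factors were made in full-length or DNA-binding-domain form. These were applied at about 100-200 nM to double-stranded universal all-10-mer Agilent arrays, and bound protein was detected with fluorescent anti-GST. Scans were normalised with masliner before the Universal PBM Analysis Suite assigned E-scores to ungapped eight-base words pooled with their reverse complements.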

| Sequence | PBM E-score |
| --- | --- |
| GATTGCCA | -0.00196 |
| CTGCGTTA | -0.0966 |
| AACCAAAT | 0.0939 |
| ATAGACAT | 0.428 |
| CTTCGGCC | -0.0503 |
| GCATGACA | 0.199 |
| GGAGACCC | -0.168 |
| CGGCTGCC | -0.184 |
| GATTTAGC | -0.0456 |
| TCCAGTCA | 0.0273 |
| AGGATGTG | -0.0903 |
| ACGGGCCG | -0.119 |
| TAAACCAA | 0.0103 |
| ATTTACTC | 0.123 |
| AGCGTAAT | -0.00956 |
| AGGTCGGA | 0.114 |
| CATGTATC | 0.133 |
| TGCTTAAA | 0.0464 |
| GCCCTTCA | -0.279 |
| CGGTATCA | 0.0871 |
| CCAACGGG | -0.0639 |
| AGAACATG | 0.109 |
| GACGTCCC | 0.148 |
| AAAGGTAA | 0.0716 |
| ATAACAAG | 0.0352 |

| Sequence | PBM E-score |
| --- | --- |
| CCTACAGG | -0.0974 |
| TCTTTCCA | -0.0394 |
| CCAGCCCG | -0.233 |
| GACTACGC | -0.172 |
| ACTATCCG | 0.124 |
| CTCCGGAA | 0.0926 |
| ATATTTGG | 0.132 |
| CGATGGAC | 0.194 |
| AATTCAAC | 0.192 |
| GGGCAGAC | -0.0606 |
| CACCGGCC | -0.245 |
| CTCACTGA | -0.173 |
| AATCGGCA | 0.0513 |
| CAAAAGAG | -0.051 |
| GGCAGTGA | -0.193 |
| ACTTTCGA | 0.133 |
| GCGTACGC | -0.0278 |
| AAAAGTTA | 0.206 |
| AAACGGTC | -0.0164 |
| CCTATGGC | -0.0988 |
| AGAATGGG | -0.054 |
| CTCCTTGC | -0.102 |
| GGCCGAAA | 0.242 |
| AACGAAGA | 0.0745 |
| AAAACGTG | -0.0168 |

| Sequence | PBM E-score |
| --- | --- |
| AAGATCGG | -0.00179 |
| GCGGTAAC | -0.0609 |
| GCCGCGCA | -0.136 |
| ACTCAGGA | -0.0577 |
| GGCCGCAC | -0.262 |
| AATCCCGT | 0.139 |
| TCGTAACA | 0.0979 |
| GATGTAAA | 0.0907 |
| AGGATCTA | -0.109 |
| GGAAAAGA | -0.106 |
| ATTACGGA | 0.138 |
| CACTAAAA | 0.0839 |
| CGTTAAAC | 0.113 |
| CCCTTAGC | -0.312 |
| AGAGGTAA | -0.0169 |
| GATCCGAA | 0.206 |
| TATGATCA | 0.17 |
| AGGGAAAC | -0.213 |
| ATGGAACA | -0.009 |
| GCAGGCTA | -0.182 |
| ACGTGGGC | 0.025 |
| CTGCCGGA | 0.0709 |
| CACCTTGG | -0.0346 |
| GTGTGGCA | -0.221 |
| ATCTTCAG | 0.1 |

| Sequence | PBM E-score |
| --- | --- |
| ATTTCCGG | 0.252 |
| AAATTGGT | 0.104 |
| ATCTGTCA | 0.159 |
| AACCGAAT | 0.0779 |
| CTCGATTC | 0.0953 |
| GCAAGTAA | -0.0526 |
| ACTGAGAC | 0.189 |
| ATGGCTTC | -0.14 |
| ATTACGCC | -0.138 |
| CGGGTGGA | -0.061 |
| TCGGTTAA | 0.176 |
| AAATATCC | 0.231 |
| ACGCCGAC | -0.00489 |
| CTGCGAGC | 0.0527 |
| ATGCCGAG | 0.112 |
| CCGGCTCA | -0.0352 |
| ACAGACTA | -0.00053 |
| ACCAGAAG | -0.069 |
| TGGTTACA | -0.00282 |
| ATACCTTC | -0.0629 |
| CAGGCCGC | -0.144 |
| GTAAATTA | 0.0144 |
| ACCTTCAG | -0.115 |
| ATGCAATC | -0.00781 |
| ATTCCAAT | 0.0648 |

| Sequence | PBM E-score |
| --- | --- |
| AAGGCGCG | -0.00694 |
| CACACGAA | -0.0438 |
| CTTCTTTA | 0.034 |
| AAACCCGC | 0.117 |
| ATGGACTA | 0.275 |
| CGTATGAA | 0.117 |
| ACTAAGCC | -0.0193 |
| CCATATCG | -0.0479 |
| TAGATTGA | 0.0299 |
| ACCCTTCA | -0.25 |
| CCTTATAG | -0.0228 |
| TCTCCCCA | -0.287 |
| CAATAACC | 0.192 |
| ATGCCGGA | 0.108 |
| TAAGGGTA | -0.155 |
| GGCCGGTA | -0.0553 |
| GAAACAGA | 0.116 |
| TACCCACA | -0.0189 |
| CTGCCGGC | -0.0895 |
| GTGGAACA | 0.0457 |
| CAAGCGGG | -0.124 |
| AACTACTT | 0.00311 |
| GGGGTCAC | -0.223 |
| AGAGGAGA | -0.128 |
| CAACGAAC | 0.149 |

| Sequence | PBM E-score |
| --- | --- |
| AGAAATTA | 0.25 |
| CACAGGTA | 0.0913 |
| CTACCTAC | -0.0857 |
| CTGGAAAA | -0.0134 |
| GGGTCCAC | -0.0921 |
| AACTCGGC | 0.138 |
| ACTGCAGA | 0.00161 |
| CTGCGGAC | 0.0915 |
| CTAGTTAA | 0.165 |
| ACCACAGC | 0.00081 |
| TGGAGCCA | -0.0997 |
| CCTCGTCG | -0.166 |
| CAGGGGTC | -0.178 |
| AGATAGGC | -0.232 |
| TACTAAGA | 0.236 |
| CGAGTCCG | 0.129 |
| AAGACTGG | -0.067 |
| CGACAGAG | -0.144 |
| AGAAGGTC | -0.0548 |
| GGAGCAGA | -0.173 |
| AGAAGTAT | 0.0725 |
| CGCGTAGA | 0.0693 |
| ACCGAAGG | -0.0834 |
| GAGGTGGA | -0.0847 |
| GCCGAGGA | 0.195 |

| Sequence | PBM E-score |
| --- | --- |
| AGCACGGG | -0.276 |
| CAATAGAG | -0.125 |
| ACGTGCCG | -0.00165 |
| CATACCTA | -0.191 |
| TCGTGACA | 0.314 |
| CCCCCGGG | -0.241 |
| ACCGCCAG | -0.04 |
| AAGTGACG | 0.00399 |
| GAAAGTAA | 0.155 |
| AAGAGCAA | -0.225 |
| ACATCGGT | 0.155 |
| CGCTAAAA | -0.154 |
| GTGCGCAC | 0.0927 |
| CCCATAGA | -0.212 |
| AATGACAT | 0.42 |
| CATTGAAC | -0.0322 |
| ACCTCAAG | -0.0697 |
| TAAAGTAA | 0.13 |
| GTTCTATA | 0.048 |
| AGATCAGG | -0.0254 |
| CTTGACCC | -0.147 |
| AGCGTCAC | -0.0789 |
